The other results are listed elsewhere or left out. The full chains were built here from the parent and the listed change. Values near 0.05 are background.
B1: TEV protease; numbered along this chain (parent)
chain: MGESLFKGPRDYNPISSSICHLTNESDGHTTSLYGIGFGPFIITNKHLFRRNNGTLVVQSLHGVFKVKDTTTLQQHLVDGRDMIIIRMPKDFPPFPQKLKFREPQREERICLVTTNFQTKSMSSMVSDTSCTFPSGDGIFWKHWIQTKDGQCGSPLVSTRDGFIVGIHSASNFTNTNNYFTSVPKNFMELLTNQEAQQWVSGWRLNADSVLWGGHKVFMVKPEEPFQPVKEATQL

Variants of: B1
Assay: raw area under fraction-flipped curve 0-4 h after induction (AUC4h, not background-subtracted), DNA-recorder readout of cleavage of the substrate (dimensionless); higher = more cleavage of the substrate by the protease variant
Conditions: temperature: 34 °C; time window: 0-4 h after rhamnose induction
Procedure: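 In vivo DNA recorder in E. coli TOP10(DE3) ΔrhaA at 34 °C. Each TEVp single-site mutant (parent TEVp 0) is paired with a single-site variant of the 7-mer TEVs (canonical ENLYFQ|S). The substrate sits between flexible linkers in a Bxb1-sfGFP-TEVs-SsrA fusion, so cleavage stabilises Bxb1 and speeds flipping of a recombination array, read by NGS. The value is the raw area under the fraction-flipped curve over 0-4 h after rhamnose induction (AUC4h), with ≥20 reads per time point. It is not background-subtracted; inactive controls average about 0.047.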
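Note: Bxb1 expression induced with 0.2% (w/v) L-rhamnose at OD600 near 0.5, cultures sampled hourly, flipped fraction per protease–substrate barcode pair counted by paired-end Illumina sequencing.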

Variant	area with substrate ENLYFQC	area with substrate ENLYFQD	area with substrate ENLYFQE	area with substrate ENLYFQF	area with substrate ENLYFQH	area with substrate ENLYFQI	area with substrate ENLYFQL	area with substrate ENLYFQM	area with substrate ENLYFQN	area with substrate ENLYFQP	area with substrate ENLYFQR	area with substrate ENLYFQS	area with substrate ENLYFQV	area with substrate ENLYFQW	area with substrate ENLYFQY	area with substrate ENLYFQG	area with substrate ENLYFQK	area with substrate ENLYFQQ	area with substrate ENLYFQT
G80D	0.145	0.0817	0.06	0.0868	0.0882	0.0552	0.0708	0.102	0.0857	0.0646	0.0698	0.124	0.0639	0.0722	0.0782				
G80Q	0.106	0.084		0.0516	0.0863	0.0616	0.0458	0.0936	0.0856	0.0437	0.0586	0.102	0.0522	0.0564	0.0761	0.11	0.0601	0.0676	0.0644
I85L	0.138	0.0641			0.0788	0.0653	0.0695	0.112		0.0349	0.0608	0.113	0.064		0.0748				0.0696
I86N	0.0285		0.0502					0.0526			0.0486	0.0516					0.0588		
M88N	0.0728				0.0595		0.0522		0.0671	0.0524	0.0481	0.0826	0.048	0.049		0.0769	0.0498		0.0414
M88P	0.0834				0.0598			0.0681	0.0594	0.0784	0.0555	0.0759		0.0476		0.0647	0.0439		
P96Q	0.164	0.0771	0.0743				0.0498		0.102		0.0757	0.107		0.0702					
P96R	0.13			0.0643		0.0409		0.0862				0.103					0.0724		0.0821
F101W	0.101	0.0576			0.0705	0.0673	0.0639	0.0469	0.0899		0.0574	0.105			0.0603	0.111	0.0746		0.0654
R102Y	0.0344					0.0362					0.0488	0.049	0.0485			0.0458			
P104A	0.0941		0.0628				0.0483		0.0879	0.0702		0.101	0.065	0.0568	0.0894			0.0876	0.0573
P104K	0.0403								0.0464	0.0759	0.0403	0.0564		0.0423	0.0404				
E108Q	0.099	0.0537		0.0635	0.0717	0.0486	0.0552	0.0684	0.0676		0.0571	0.0729		0.0635		0.0766	0.0593		0.0606
L112T	0.09	0.0681	0.0679			0.057	0.0754	0.0812	0.0498		0.0525	0.0737		0.0613	0.0525	0.0646	0.0721	0.075	0.0663
L112V	0.095			0.0564	0.0884	0.0538		0.0735			0.0677	0.0888		0.0778		0.0233	0.0653	0.0426	0.061
T115M	0.112	0.0793	0.0287	0.0904	0.0822	0.0526	0.0435	0.0905	0.0693		0.0549	0.105	0.037	0.0604		0.0977	0.0674		
T119E	0.084					0.0657					0.0401	0.102				0.103	0.0612		
T119I	0.151	0.0675				0.0651			0.0855		0.0575	0.106		0.0587		0.0882	0.03		
K120A	0.0975	0.0596				0.0394		0.095	0.0826	0.055	0.0606	0.107	0.0704	0.0703		0.104	0.0675		
K120E	0.0903	0.062	0.0492	0.093	0.0705	0.059	0.0643	0.0662	0.0784	0.0546	0.0593	0.103	0.0526	0.0658	0.0532		0.0718		0.0775
S127T	0.127	0.0834		0.0465	0.0671	0.069	0.0614	0.0459	0.0857		0.0592	0.1	0.0552	0.0636	0.102	0.107	0.0583		0.097
D128S	0.164	0.0951			0.108	0.0609	0.0652	0.0224	0.157			0.144	0.0579	0.0627		0.117		0.101	
S130R	0.0924				0.0676	0.0683		0.0595	0.0646	0.0826	0.0543	0.0823							0.0614
G136K	0.126	0.0854				0.0516		0.0756	0.0781	0.0587	0.0589	0.0999		0.0704	0.076	0.0939			0.0559
D137P	0.114	0.0864				0.0634				0.0641	0.0585	0.112					0.0667		0.0975
G138R	0.098			0.076		0.073				0.0574	0.0509	0.0888		0.059		0.091			
W141S	0.0561	0.0522		0.0465	0.0638	0.054		0.0552		0.0677	0.0512	0.0578	0.0584	0.0598	0.062	0.0936	0.0536		
W144D	0.0776	0.0621	0.0396			0.0347	0.0586	0.078	0.0735		0.055	0.0815	0.0617	0.0585					
W144G	0.0846	0.0505			0.0584	0.0518	0.0565	0.0473			0.0571	0.0822	0.0572	0.0818	0.0962		0.0772	0.0654	0.0794
I145R	0.0649	0.0562	0.0586				0.0561		0.055	0.0547	0.0389	0.0592	0.0613		0.0673				

— the supplement of paper PMC12217912
